Test results as given in PubChem BioAssay AID1963576 (National Center for Advancing Translational Sciences (NCATS), 2024).
Out of some 46,000 compounds screened, about 60 (0.1%) were called active. Not shown: some 3% with an inconclusive outcome. Calls follow the shape of the dose curve; as a rule, active = well fitted inhibition curve with a large enough effect; inconclusive = small, poorly fitted or top-dose-only effect; inactive = no such curve, though single readings can be large or run the other way. This is one part of the list.

Assay: Primary qHTS assay for Inhibitors of ovarian cancer metastasis using an organotypic tumor microenvironment (TME) model. Also: nearly all actives have a fitted effect of over 65% in size.
Conditions: SKOV3ip1-GFP adhesion/invasion on 3D omental model, fluorescence; series mostly up to 45.8 µM; activity change, negative = inhibition: at the top concentration
Text: PI: Ernst Lengyel MD., Ph.D. Department of Obstetrics and Gynecology, Section of Gynecologic Oncology University of Chicago Medicine, Chicago, Illinois. The tumor microenvironment (TME) is a key determinant of metastatic efficiency. We performed a quantitative high-throughput screen (qHTS) of diverse medicinal chemistry tractable scaffolds (44,420 compounds) and pharmacologically active small molecules (386 compounds) using a layered organotypic, robust assay representing the ovarian cancer metastatic TME. This 3D model contains primary human mesothelial cells, fibroblasts, and extracellular matrix, to which fluorescently labeled ovarian cancer cells are added. Initially, 100 compounds inhibiting ovarian cancer adhesion/invasion to the 3D model in a dose-dependent manner were identified. Of those, eight compounds were confirmed active in five high-grade serous ovarian cancer cell lines and were further validated in secondary in vitro and in vivo biological assays. […] Specifically, NCGC00117362 and PP-121 inhibited ovarian cancer adhesion, invasion, and proliferation, whereas milciclib inhibited ovarian cancer invasion and proliferation. […] To evaluate the clinical potential of NCGC00117362, structure - activity relationship studies were performed. […] The three compounds identified have promise as therapeutics for prevention and treatment of ovarian cancer metastasis.
PROTOCOL TABLE (as described by Inglese J, Shamu CE and Guy RK. 2007) SEQUENCE No. (e.g., 1, 2, 3, etc.); […] (e.g., Cells, Incubation, Reagent, etc.); VALUE; DESCRIPTION. 1; Cells; 4 uL; primary human omental fibroblast, black, clear bottom, low base, 1536-well Aurora assay plate. 2; Incubation; 48 hr; 37C. 3; Cells; 3 uL; 1,200 SKOV3ip1-GFP cells. 4; Compounds; 23nL; acoustic dispenser. 5; Incubation; 2 hr; room temperature. 6; Incubation; 16 hr; 37C. 7; Wash; 5 uL; 1x PBS. 8; Fixing; 5 uL; 4% paraformaldehyde (PFA). 9; Incubation; 15 min; room temperature 10; Wash, 5 uL; 1x PBS. 11; Detection; Fluorescence, excitation filter 488 nm, emission filter 509 nm. NOTES (numbers refer to Sequence numbers above) 1. For the 1,536-well format, 40 primary human omental fibroblasts and 400 mesothelial cells were seeded with 0.02 µg fibronectin and 0.02 µg collagen type I in 4 µL of growth media (2.3 mm2; Supplementary Fig. S1A). 2. Assay plates were incubated for 48 hours at 37 C. 3. After incubation, 1,200 SKOV3ip1-GFP were seeded in 3 µL of serum-free media (growth media minus FBS) on top of primary human omental cells. 4. Compounds or controls were added to each well immediately after the addition of the cancer cells. Compounds were screened in four doses (0.36-46 µmol/L), and the plates contained the positive control (Tomatine) in eight doses (0.035-75 µmol/L) and DMSO (equal volume controls) 5 - 6. The plates were incubated at room temperature for 2 hours and then at 37 degrees C for 16 hours. 7 - 10. Following incubation, the media were aspirated and each well washed with PBS (5 µL) and then fixed with 4% paraformaldehyde (PFA; 5 µL). After 15 minutes, the PFA solution was aspirated, PBS (5 µL) was added. 11. The number of GFP-labeled cells analyzed using a fluorescent cytometer TTP LabTech Acumen eX3 using 488 nm excitation filter and 509 nm emission filter. Data was normalized to the DMSO treated for negative and Tomatine treated wells for positive control. REFERENCES: Inglese J, Shamu CE and Guy RK, Reporting data from high throughput screening of small molecule libraries, Nature Chemical Biology, 2007, 3(8): 438-441. doi.org/10.1038/nchembio0807-438. Yasgar A, Shinn P, Jadhav A, Auld DS, Michael S, Zheng W, Austin CP, Inglese J and Simeonov A, Compound Management for Quantitative High-Throughput Screening. J. Assoc. Lab. Auto., 2008, 13: 79-89. doi: 10.1016/j.jala.2007.12.004.

SMILES | activity change, negative = inhibition | outcome
COC(=O)c1c(NC(=O)c2c(OC)cccc2OC)sc2c1CCCC2 | inactive: 0.291% | 
CCc1ccc(Nc2nc3c(S(=O)(=O)c4cccc(Cl)c4)nnn3c3ccsc23)cc1 | inactive: -11.9% | 
CC(=O)Nc1c(C(=O)Nc2ccccc2F)oc2ccccc12 |  | inactive
COc1ccc(-n2cc(C(=O)Nc3ccccc3C#N)c3ccccc3c2=O)cc1 | inactive: 1.24% | 
CNc1nc(Oc2ccc(=O)[nH]n2)nc(N2CCOCC2)n1 | inactive: 2.3% | 
Nc1nc(F)nc2c1ncn2[C@@H]1O[C@H](COP(=O)(O)O)[C@@H](O)[C@H]1O | inactive: -16.6% | 
COc1ccc2nc(NC(=O)c3nc(SCc4cccc(C)c4)ncc3Cl)sc2c1 |  | inactive
COc1ccc(OC)c(CNC(=O)CCC(=O)N2Cc3ccccc3Oc3ncccc32)c1 | inactive: 1.22% | 
COc1ccc(N2CC(NC(=O)C3CCCC3)CC2=O)cc1 (stereo unspecified) | inactive: 1.29% | 
COc1ccccc1NC(=O)C1=C(C)Nc2ncnn2C1c1sccc1C (stereo unspecified) | inactive: 3.7% | 
Cc1ccccc1CNC(=O)Cn1cc2c(n1)-c1c(oc(C(=O)N3CCCC3)c1C)CC2 | inactive: -4.39% | 
Cc1nc(SCCOc2ccc(Cl)cc2)[nH]c(=O)c1Cc1ccccc1 | inactive: -15.7% | 
COc1cccc(-n2cc(C(=O)Nc3ccccc3C(N)=O)c3ccccc3c2=O)c1 | inactive: 21.7% | 
Cc1ccc(NC(=O)CN2C(=O)COc3ccc(S(=O)(=O)N4CCOCC4)cc32)c(Cl)c1 | inactive: -8.23% | 
CCOc1ccc(NC(=O)Cn2c(=O)n(Cc3ccccc3)c(=O)c3c4c(sc32)CN(C(C)=O)CC4)cc1 |  | inactive
CC(C)(C)c1ccc(S(=O)(=O)N2CCC(c3ccncc3)CC2)cc1 | inactive: 13.8% | 
CCOc1ccccc1NC(=O)c1nn(-c2ccc(OC)cc2)c(=O)c2c1c1ccccc1n2C | inactive: 4.81% | 
O=C(c1cccc([N+](=O)[O-])c1)N1CCN(CCc2ccncc2)CC1 | inactive: 0.319% | 
Cc1cccc(C(=O)Nc2sc3c(c2C(=O)O)CCCC3)c1 | inactive: 11.6% | 
Cc1cc(C)cc(NC(=O)CN(C)S(=O)(=O)c2ccc3c(c2)CCC(=O)N3)c1 | inactive: -2.77% | 
COc1ccc(N(CC(=O)N2CCN(c3ccc(F)cc3)CC2)S(=O)(=O)c2c(C)nn(C)c2C)cc1 | inactive: 25.7% | 

SMILES | activity change, negative = inhibition | outcome
CC(=O)c1c(C)oc2ccc(N(C(=O)c3ccncc3)S(=O)(=O)c3ccc(F)cc3C)cc12 | inactive: -4.04% | 
COc1ccc(NS(=O)(=O)c2ccc3c(c2)n(C)c(=O)c(=O)n3C)cc1Cl |  | inactive
COc1cccc(CNC(=O)CC(c2ccc(C)cc2)N2Cc3ccccc3C2=O)c1 (stereo unspecified) |  | inactive
CCOC(=O)C(CC)Sc1nnc2[nH]c(=O)cc(C)n12 (stereo unspecified) |  | inactive
CCCOc1ccc(C2C(=O)N(C3CCCCC3)CC(=O)N2CCC2=CCCCC2)cc1OC (stereo unspecified) |  | inactive
Cc1ccc(CNC(=O)c2cnn(-c3ccc(F)cc3F)c2C2CCN(C(=O)OC(C)(C)C)CC2)cc1 | inactive: 0.265% | 
CCCOc1ccc(CNC(=O)Cn2c(=O)oc3ccccc32)cc1 | inactive: 4.53% | 
COc1cc(Cl)c(NC(=O)CN(C)S(=O)(=O)c2ccc3[nH]c4c(c3c2)CCCC4)c(OC)c1 | inactive: 4.18% | 
COc1cccc(CNC(=O)c2cccc(NC(=O)c3nsc4ccccc34)c2)c1 | inactive: -14.8% | 
CCc1ccc(Cn2c(CNS(=O)(=O)c3ccc(Cl)s3)nc3cccnc32)cc1 | inactive: -1.53% | 
COc1ccccc1-c1ccnc2c(-c3ccc(Br)cc3)c(C)nn12 |  | inactive
Cc1ccccc1NC(=O)CSc1nnc(-c2cccc(Cl)c2)o1 | inactive: 8.44% | 
COc1ccc(CNC(=O)C(C)n2nc(C)c3sc4ccccc4c3c2=O)cc1OC (stereo unspecified) | inactive: 17.8% | 
CCOC(=O)c1cc2c(=O)n3ccccc3nc2n(CC2CCCO2)c1=NC(=O)c1ccccc1F (stereo unspecified) | inactive: 3.76% | 
COc1cccc(CNC(=O)CCS(=O)(=O)c2cc3c4c(c2)CCN4C(=O)CC3)c1 | inactive: 23.8% | 
NC[C@H]1O[C@H](O[C@H]2[C@@H](O)[C@@H](O[C@H]3O[C@H](CO)[C@@H](O)[C@H](N)[C@@H]3O)[C@H](N)C[C@@H]2N)[C@H](N)C[C@H]1O | inactive: 1.65% | 
COc1cc(-c2nc3cnccn3c2Nc2ccc(C(C)C)cc2)ccc1O | inactive: -21.7% | 
O=C(CSc1n[nH]c(-c2ccccc2)n1)NCCc1ccccc1 | inactive: 4.85% | 
Cc1csc2nc(-c3cccc(NC(=O)c4ccccc4F)c3)cn12 |  | inactive
Cc1nn2c(=O)cc(COC(=O)c3ccc(NC(=O)c4ccc(C(C)(C)C)cc4)cc3)nc2s1 |  | inactive
Cc1cccc(Nc2ncnc3c2cnn3C)c1C | inactive: -6.27% | 

SMILES | activity change, negative = inhibition | outcome
COc1ccc(C)c2sc(N(Cc3cccnc3)C(=O)COc3ccccc3)nc12 | inactive: 2.28% | 
COc1ccc(NC(=O)c2c(NCc3cccc(OC)c3)sc3c2CCC3)cc1 | inactive: 6.9% | 
CCc1ccc(S(=O)(=O)Nc2cc(-c3cn4ccccc4n3)ccc2C)cc1 | inactive: -21.5% | 
COc1cccc(Nc2cc(-c3ccccc3)nc(C)n2)c1 | inactive: 11.3% | 
CCCOc1ccc(C(=O)Nc2ccc(NC(=O)c3cccc(Cl)c3)cc2)cc1 |  | inactive
Cc1ccc(C)c(N2CCN(C(=O)c3cc(S(=O)(=O)N4CCCC4)c[nH]3)CC2)c1 | inactive: -4.36% | 
CN(C)c1ccc(-c2nc(-c3ccncc3)no2)cc1[N+](=O)[O-] |  | inactive
Cc1ccc2c(c1)N(C(=O)N1CCC(C(=O)NC3CCCCCC3)CC1)CCO2 | inactive: -0.267% | 
Cc1ccc(-n2ncc3c(N4CCN(C)CC4)ncnc32)cc1 | inactive: -2.3% | 
COc1cc(OC)cc(C(=O)NCc2ccc3c(c2)CCN3C(=O)c2ccccc2)c1 | inactive: -0.891% | 
CC(=O)N1CCCc2cc(S(=O)(=O)NCc3ccc(N(C)C)cc3)ccc21 | inactive: 9.65% | 
COCCCNC(=O)CSc1nc2nc(C)c(Cc3ccccc3Cl)c(C)n2n1 |  | inactive
COc1cccc(CNC(=O)c2cc(-c3cccs3)nc3ccccc23)c1 | inactive: 0.987% | 
COc1ccc(Cn2c(C(=O)O)c(CNC3CCC(C)CC3)c3ccc(C)cc32)cc1 (stereo unspecified) | inactive: -4.67% | 
COc1cc(C(=O)N2CCC(c3ccncc3)CC2)cc(OC)c1OC | inactive: -0.392% | 
CCOc1ccc(Nc2c(S(=O)(=O)c3ccc(C)cc3)cnc3ccc(OC)cc23)cc1 | inactive: -0.327% | 
COC(=O)c1ccc(NC(=O)CC2C(=O)N(c3ccccc3)C(=O)N2C2CCCC2)cc1 (stereo unspecified) | inactive: 8.55% | 
COc1cc2nc(NCc3ccccc3Cl)n3nc(-c4cccnc4)nc3c2cc1OC | inactive: -6.96% | 
COc1ccc(CC(=O)N2CC(=O)Nc3ccc(Br)cc3C2c2ccc(F)cc2)cc1OC (stereo unspecified) | inactive: -8.24% | 
